Data: the supplement of paper PMC4967469
Lines with a small IC50 respond at low doses; a fit beyond the top or the lowest dose is shown as a bound at that dose. For AUC the same curve is integrated over the 256-fold range of doses and scaled to a fraction; the more sensitive the line, the further below 1. For part of these data: The top dose, if marked as inferred, comes from the curve model; the source does not state it. For part of these data: Drugs with an entry number were screened twice under separate entries, and the two screens often disagree.

What was measured:
Assay in all cases: Viability of human cancer cell lines after 72 h of drug (GDSC screen)
GDC0941 = compound: CS(=O)(=O)N1CCN(Cc2cc3nc(-c4cccc5[nH]ncc45)nc(N4CCOCC4)c3s2)CC1 [GDC0941]; conditions: top dose 4 µM; screen: GDSC drug entry 1527; top dose inferred
Protocol: (§1)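 Human cancer cell lines in 384-well plates, medium with 10% serum, drug for 72 h over a 256-fold dose range (nine 2-fold or five 4-fold steps up to the top dose). Adherent lines were fixed and stained with the nucleic acid dye Syto60, suspension lines read with resazurin; signal relative to control wells, capped at 0 and 100%. One two-parameter sigmoid per drug and line, fitted in a mixed model over all curves with the slope shared within a line.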

Pazopanib = compound: Cc1ccc(Nc2nccc(N(C)c3ccc4c(C)n(C)nc4c3)n2)cc1S(N)(=O)=O [Pazopanib]; conditions: top dose 8 µM
Protocol: as §1

AR-42 = compound: CC(C)[C@H](C(=O)Nc1ccc(C(=O)NO)cc1)c1ccccc1 [AR-42]; conditions: top dose 5.12 µM; top dose inferred
Protocol: as §1

CEP-701 = compound: C[C@]12O[C@H](C[C@]1(O)CO)n1c3ccccc3c3c4c(c5c6ccccc6n2c5c31)CNC4=O [CEP-701]; conditions: top dose 2 µM; top dose inferred
Protocol: as §1

Cell Line	AUC (GDC0941)	IC50 (GDC0941) [nM]	AUC (Pazopanib)	IC50 (Pazopanib) [nM]	AUC (AR-42)	IC50 (AR-42) [nM]	AUC (CEP-701)	IC50 (CEP-701) [nM]
H2369 (mesothelioma, adherent)	0.879	> 4000	0.563	746	0.708	1270	0.576	203
H2461 (mesothelioma, adherent)	0.76	1740	0.864	> 8000	0.704	1410	0.925	> 2000
H3118 (head and neck, adherent)	0.341	86.8	0.981	> 8000	0.408	175	0.687	439
HARA (lung squamous cell carcinoma, adherent)	0.853	3950	0.97	> 8000	0.641	841	0.594	237
HCC1937 (breast, adherent)	0.943	> 4000	0.958	> 8000	0.707	1350	0.852	1930
HCC-15 (lung squamous cell carcinoma, adherent)	0.77	1960	0.934	> 8000	0.91	> 5120	0.717	621
HT55 (large intestine, adherent)	0.926	> 4000	0.797	3770	0.671	953	0.895	> 2000
Hep 3B2_1-7 (liver, adherent)	0.735	1170	0.618	1060	0.586	550	0.511	134
Hs766T (pancreas, adherent)	0.92	> 4000	0.951	> 8000	0.779	2820	0.669	432
Hs939-T (melanoma, adherent)	0.801	2160	0.944	> 8000	0.736	1630	0.806	1140
IA-LM (large cell lung carcinoma, adherent)	0.783	1900	0.858	7870	0.829	3730	0.867	> 2000
JHH-7 (liver, adherent)	0.791	1670	0.76	2650	0.661	869	0.656	329
JHU-011 (head and neck, adherent)	0.866	3480	0.842	5480	0.553	444	0.395	64.6
JHU-022 (head and neck, adherent)	0.719	1250	0.982	> 8000	0.786	2870	0.63	315
KYSE-450 (oesophagus, adherent)	0.773	1480	0.965	> 8000	0.645	787	0.861	1540
LB373-MEL-D (melanoma, adherent)	0.935	> 4000	0.897	> 8000	0.57	494	0.909	> 2000
LC-1-sq (lung squamous cell carcinoma, adherent)	0.931	> 4000	0.985	> 8000	0.581	555	0.749	746
LN-18 (glioma, adherent)	0.968	> 4000	0.972	> 8000	0.769	1580	0.726	470
LNZTA3WT4 (glioma, adherent)	0.889	> 4000	0.94	> 8000	0.686	1050	0.596	228
LOU-NH91 (lung squamous cell carcinoma, adherent)	0.807	2270	0.976	> 8000	0.668	982	0.605	249
MDA-MB-330 (breast, adherent)	0.752	1490	0.939	> 8000	0.516	355	0.785	984
MDA-MB-415 (breast, adherent)	0.733		0.871	> 8000	0.931	> 5120	0.873	> 2000
MDA-MB-436 (breast, adherent)	0.844	> 4000	0.965	> 8000	0.81	3600	0.799	1260
ME-180 (cervix, adherent)	0.648	654	0.97	> 8000	0.617	684	0.685	423

Cell Line	AUC (GDC0941)	IC50 (GDC0941) [nM]	AUC (Pazopanib)	IC50 (Pazopanib) [nM]	AUC (AR-42)	IC50 (AR-42) [nM]	AUC (CEP-701)	IC50 (CEP-701) [nM]
MES-SA (uterus, adherent)	0.65	607	0.932	> 8000	0.914	> 5120	0.816	906
MOG-G-UVW (glioma, adherent)	0.747	1250	0.854	6050	0.472	270	0.488	116
MS751 (cervix, adherent)	0.895	> 4000	0.974	> 8000	0.833	2950	0.629	275
NCI-H841 (small cell lung carcinoma, adherent)	0.935	> 4000	0.947	> 8000	0.717	1320	0.663	356
NCI-H1781 (lung adenocarcinoma, adherent)	0.885	> 4000	0.954	> 8000	0.823	3020	0.839	1370
NCI-H1944 (lung adenocarcinoma, adherent)	0.651	677	0.842	6200	0.474	271	0.587	220
NCI-H2009 (lung adenocarcinoma, adherent)	0.837	2890	0.946	> 8000	0.906	> 5120	0.734	609
NCI-H2444 (non-small cell lung carcinoma, adherent)	0.936	> 4000	0.988	> 8000	0.646	859	0.888	> 2000
OAW-42 (ovary, adherent)	0.517	279	0.971	> 8000	0.711	1330	0.664	372
OE21 (oesophagus, adherent)	0.654	785	0.938	> 8000	0.717	1690	0.578	221
OV-90 (ovary, adherent)	0.842	> 4000	0.863	> 8000	0.669	1090	0.735	720
PANC-02-03 (pancreas, adherent)	0.711	1120	0.983	> 8000	0.534	404	0.762	850
PCI-30 (head and neck, adherent)	0.858	> 4000	0.978	> 8000	0.922	> 5120	0.828	1630
RERF-LC-Sq1 (lung squamous cell carcinoma, adherent)	0.717	1390	0.958	> 8000	0.703	1580	0.926	> 2000
RT4 (bladder, adherent)	0.986	> 4000	0.876	> 8000	0.348	119	0.885	> 2000
SISO (cervix, adherent)	0.772	1490	0.945	> 8000	0.754	1670	0.684	398
SKN (uterus, adherent)	0.749	1540	0.775	3860	0.645	882	0.468	100
SKN-3 (head and neck, adherent)	0.935	> 4000	0.962	> 8000	0.666	1010	0.689	471
SNU-182 (liver, adherent)	0.768	1560	0.969	> 8000	0.571	506	0.588	220
SNU-423 (liver, adherent)	0.706	1060	0.855	> 8000	0.506	332	0.738	681
SW756 (cervix, adherent)	0.912	> 4000	0.91	> 8000	0.875	> 5120	0.744	727
T-T (oesophagus, adherent)	0.841	2750	0.892	> 8000	0.783	2140	0.548	169
TOV-21G (ovary, adherent)	0.923	> 4000	0.983	> 8000	0.816	3150	0.242	20.7
